The assay has as its target T1, mouse FcRn (mouse, UniProt P01887 21-119, limits assumed).
T1 construct: also called mFcRn
T1 sequence 1: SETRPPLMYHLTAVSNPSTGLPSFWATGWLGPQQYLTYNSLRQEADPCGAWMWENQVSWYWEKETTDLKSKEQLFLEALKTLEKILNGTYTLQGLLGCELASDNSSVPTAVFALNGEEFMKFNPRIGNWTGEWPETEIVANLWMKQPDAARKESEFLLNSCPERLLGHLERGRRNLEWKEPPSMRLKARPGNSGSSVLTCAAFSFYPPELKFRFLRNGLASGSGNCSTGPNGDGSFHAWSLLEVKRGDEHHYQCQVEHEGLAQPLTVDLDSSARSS
T1 sequence 2: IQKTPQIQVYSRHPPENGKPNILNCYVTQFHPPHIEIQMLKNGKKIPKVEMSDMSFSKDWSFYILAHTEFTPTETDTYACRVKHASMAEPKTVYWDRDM
The experiment in a line: SPR (Biacore T100), protein L capture, pH 7.0, 25 C. (Surface plasmon resonance follows binding to a sensor surface in real time, without labels.)

In general, Kd refers to the constant that tells how readily two partners part at equilibrium.

B1: VH3/L(WT)-F29 (antibody, human IgG1, kappa)
heavy: QVQLQESGPGLVKPSETLSLTCAVSGHSISHDHAWSWVRQPPGEGLEWIGFISYSGITNYNPSLQGRVTISRDNSKNTLYLQMNSLRAEDTAVYYCARSLARTTAMDYWGEGTLVTVSS[gap - human IgG1 constant region with I332V N434Y (EU numbers)]
light: DIQMTQSPSSLSASVGDRVTITCRASQDISSYLNWYQQKPGKAPKLLIYYTSRLHSGVPSRFSGSGSGTDFTFTISSLQPEDIATYYCQQGNTLPYTFGQGTKVEIKRTVAAPSVFIFPPSDEQLKSGTASVVCLLNNFYPREAKVQWKVDNALQSGNSQESVTEQDSKDSTYSLSSTLTLSKADYEKHKVYACEVTHQGLSSPVTKSFNRGEC
notes: copies: 2 + 2
As for B1, binding was put at a Kd of 85 nM.

For the origin of these results see patent publication US20240279325A1 (Chugai, published 2024).
